Hit rate of the full screen: of about 50,000 compounds, about 800 (1.6%) showed an effect of 50% or more. The list shows a part of the results.

The target in this test is Bcl-2-like protein 10 (Homo sapiens) (UniProt Q9HD36). The test can be described thus: TR3 peptide-Bcl-B binding displacers, biochemical primary FP assay, phenotype converters (AID 1240).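 Also: 0% = Bcl-B with tracer peptide and DMSO and 100% = tracer peptide lacking Bcl-B.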 The following applies: GST-Bcl-B / FITC-TR3 peptide fluorescence polarization; stronger effect = higher value; compound at 3.75 mg/L.
UniProt Q9HD36, sequence (Q9HD36 whole entry, looked up): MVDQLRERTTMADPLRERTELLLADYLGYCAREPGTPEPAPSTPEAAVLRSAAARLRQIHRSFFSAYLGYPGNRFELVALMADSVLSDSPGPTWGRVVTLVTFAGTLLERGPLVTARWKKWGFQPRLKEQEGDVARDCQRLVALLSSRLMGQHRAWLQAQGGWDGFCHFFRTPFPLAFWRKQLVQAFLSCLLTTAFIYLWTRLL
In the case of `CCCS(=O)(=O)c1c(S(=O)(=O)CCC)c2c(N)cccn2c1C(=O)OC`, the displacement worked out at 31.2%.

For `COc1cc([N+](=O)[O-])ccc1N=S(C)C`, the displacement was found to be 13.5%.

`CN1c2ccccc2C(C)(C)C12C=Cc1cc(C=O)ccc1O2` (centres undefined): the displacement came out at 6.3%.

With `CC(C)C(=O)Nc1sc2c(c1C(=O)Nc1ccc(Br)cc1)CCC2`, the displacement is -2.7%.

Take `CC(=O)N(c1ccccc1Cl)S(=O)(=O)c1ccc(Cl)cc1`: the displacement came to 15.9%.

In the case of `O=[N+]([O-])c1ccccc1NCCNS(=O)(=O)c1ccc(Cl)cc1`, the displacement was determined as 6.9%.

For the molecule `CCOC(=O)Cn1c(C(F)(F)F)nc2ccccc21`, the displacement was -0.8%.

`COc1cccc(OCCOc2ccccc2/C=C2/SC(=S)NC2=O)c1`: the displacement was 17.2%.

For the molecule `COc1ccc(OCCCN2CCCC2)cc1`, the displacement is 11.6%.

Regarding `CCC(CC)NCc1ccccc1OC`, the displacement came to 5.2%.

In the case of `Cc1c(Cl)c([N+](=O)[O-])nn1CC(=O)N1CCN(C)CC1`, the displacement was -11.3%.

With `COc1ccc(/C=C2\SC(=S)N(CCC(=O)Nc3ccccc3C)C2=O)cc1OC`, the displacement was 15.4%.

As for `Cc1cc(OCC(=O)Nc2cc(Cl)ccc2C)ccc1Cl`, the displacement came to 12.7%.

For the molecule `COC(=O)Oc1ccc2c(=O)c(-c3ccccc3OC)coc2c1`, the displacement is -5.1%.

For `O=C(O)CCCNC(=O)c1ccccc1NC(=O)c1ccccc1`, the displacement was -3.9%.

In the case of `Clc1ccc(COCc2nc3ccccc3n2Cc2ccc(Cl)cc2)cc1`, the displacement was determined as 3.4%.

Take `COc1cccc(C2=NN(C(=O)COc3ccccc3)C(O)(C(F)(F)F)C2)c1` (centres undefined): the displacement was 0.7%.

Take `CCOc1cccc(C(=O)Nc2nnc(COc3ccc(Br)cc3)s2)c1`: the displacement turned out to be 5.4%.

Take `O=C(O)c1ccc(Oc2ccc(S(=O)(=O)c3ccc(Cl)cc3)cc2)cc1`: the displacement stood at 0.6%.

On to `O=C(O)CCn1c(SCCc2ccccc2)nc2ccccc21`, for which the displacement came out at 3.2%.

On to `Cc1ccc(N2C(=O)C3C(C2=O)C2C=CC3C23CC3)cc1` (centres undefined), for which the displacement is 7.8%.

Regarding `CCOC(=O)c1[nH]c2c(CC)cccc2c1CCN1C(=O)c2ccccc2C1=O`, the displacement was 25.7%.

Consider `O=[N+]([O-])c1ccc(OCCS(=O)(=O)c2ccccc2)c(OCCS(=O)(=O)c2ccccc2)c1`, for which the displacement turned out to be 6.6%.

As to `COC(=O)C1=C(C)NC(=O)N(C(C)=O)C1c1cccc([N+](=O)[O-])c1` (centres undefined), the displacement worked out at 8.6%.

With `CC1(C)CC(=O)c2sc(NC(=O)CN3CCCCC3)nc2C1`, the displacement amounted to 1.7%.

As to `CCOc1ccc2c(=O)c(-c3ccccc3OC)coc2c1`, the displacement was found to be 12.8%.

Take `C=CCn1cc(F)c(=O)n(CC(C)C)c1=O`: the displacement is -19.5%.

Regarding `Cc1onc(-c2ccccc2Cl)c1C(=O)N1CCC(C(O)(c2ccccc2)c2ccccc2)CC1`, the displacement is -4.1%.

Turning to `O=C(Nc1ccc2c(c1)OCCO2)c1ccccc1[N+](=O)[O-]`, the displacement stood at 1.6%.

`O=C(N/N=C/c1ccc(Br)cc1)c1cc(C23CC4CC(CC(C4)C2)C3)[nH]n1`: the displacement is -6.6%.

In the case of `Cc1c(NC(=O)c2ccco2)cccc1-c1nc2ncccc2o1`, the displacement is -2.5%.

In the case of `Cc1[nH]c2ccccc2c1C(=O)/C=C/c1ccc2c(c1)OCO2`, the displacement is 7.7%.

As for `CC(NC(=O)C(=O)NC(C)C1COc2ccccc2O1)C1COc2ccccc2O1` (centres undefined), the displacement is -0.6%.

`O=[N+]([O-])c1ccc(OCc2ccccc2Cl)cc1`: the displacement is -9%.

Turning to `Cc1nc2ccccc2n1CCC(C)C`, the displacement was 13.2%.

For `O=C(Cc1ccc([N+](=O)[O-])cc1)N/N=C/c1cccnc1`, the displacement was 3.9%.

Consider `COc1ccc(CCNC(=O)CN(c2cccc([N+](=O)[O-])c2)S(=O)(=O)c2ccccc2)cc1OC`, for which the displacement was determined as 1.7%.

Take `CC(C)CC(=O)NS(=O)(=O)c1ccc(NC(=O)c2ccco2)cc1`: the displacement came to 16.9%.

As for `C=C(C)Cn1c(-c2ccc(OC)c(OC)c2)n[nH]c1=S`, the displacement was -2.8%.

As for `NC(=O)c1ccccc1NC(=O)N1CCOCC1`, the displacement turned out to be 13.1%.

As to `COc1cc(OC)cc(C(=O)Nc2cccc(Cl)c2Cl)c1`, the displacement was found to be 14.5%.

Turning to `O=C(CSc1ncccn1)NCc1ccccc1`, the displacement was 4.5%.

With `O=C1NC(c2ccccc2)=C(c2ccc3ccccc3n2)C(c2ccncc2)N1` (centres undefined), the displacement was determined as 13.7%.

For `O=c1c2c3c(sc2ncn1/N=C/c1c[nH]c2ccccc12)CCCC3`, the displacement was -1.5%.

For `Cc1ccc(/C=c2\sc3nnc(-c4ccccc4)n3c2=O)cc1`, the displacement is -30.1%.

For `C/C(=N\Nc1c(Cl)cc(Cl)cc1Cl)c1ccccn1`, the displacement was -7%.

As for `O=C(Nc1ccccc1Br)C12CC3CC(CC(C3)C1)C2`, the displacement is -0.7%.

On to `CCOC(=O)c1ccccc1NS(=O)(=O)c1cccs1`, for which the displacement came out at 7.5%.

Regarding `CC1=C(C)CC2C(=O)C3=C(C(=O)C2C1)C1c2ccccc2C3c2ccccc21` (centres undefined), the displacement is -3.5%.

In the case of `COc1ccc(-n2nc3cc(C)c(NC(=O)COc4ccc(Cl)cc4C)cc3n2)cc1`, the displacement was determined as 2.8%.

For `COc1ccc(OC)c(/C=N/NC(=O)CSc2ncccn2)c1`, the displacement came out at 1.1%.

In the case of `O=C1NC(=O)N(c2ccc(Cl)cc2)C(=O)/C1=C/c1ccc(F)cc1`, the displacement was determined as 8.2%.

For `Cc1ccc(Br)cc1S(=O)(=O)N1CCN(Cc2ccccc2)CC1`, the displacement is -3.5%.

In the case of `CCc1ccc(NC(=O)CSc2nc3sc4c(c3c(=O)n2-c2ccccc2)CCCC4)cc1`, the displacement was -13.8%.

Consider `O=C(CCC(=O)OCC(F)(F)C(F)F)Nc1ccc(Cl)cc1Cl`, for which the displacement stood at 15.4%.

Turning to `Cc1ccc(NC(=O)c2ccccc2[N+](=O)[O-])c(C)c1`, the displacement is 9%.

On to `COc1cc(/C=N/NS(=O)(=O)c2ccc3ccccc3c2)ccc1OCC(N)=O`, for which the displacement was found to be 9.7%.

On to `COc1ccc(C2CC(=O)C3=C(C2)Nc2ccccc2NC3c2ccc([N+](=O)[O-])cc2)cc1` (centres undefined), for which the displacement is -5.3%.

Take `O=C(O)CN1C(=O)c2cccc3c(Br)ccc1c23`: the displacement is 15.2%.

Take `O=C1NC(=O)C(=Cc2ccc(OCc3cccc4ccccc34)cc2)C(=O)N1`: the displacement was found to be 7%.

With `COc1ccc(OCCNC(=O)c2ccccc2[N+](=O)[O-])cc1`, the displacement came to 6.4%.

`COc1ccc(OC)c(-c2nc(-c3ccccc3)c(-c3cccs3)[nH]2)c1`: the displacement worked out at 15.1%.

`COC(=O)C1=NN(C(=O)c2cccc(OC)c2)C(C)(O)C1` (centres undefined): the displacement was -5.7%.

Turning to `C=CCNC(=O)CN(c1ccc(OC)cc1)S(=O)(=O)c1ccc(OC)c(OC)c1`, the displacement was 0.9%.

For `Cc1ccc(NC(=O)C(=O)NCCC(C)C)c(C)c1`, the displacement came out at 5.6%.

Turning to `COc1ccc(Br)cc1CN1CCN(Cc2cccnc2)CC1`, the displacement is -18.6%.

As for `O=C(/C=C/Nc1cccc(O)c1)c1ccc(Br)cc1`, the displacement is -2.9%.

Regarding `CCOc1ccc2c(c1)C(C)=CC(C)(C)N2C(=O)CN1C(=O)c2ccccc2C1=O`, the displacement was -5.7%.

`C=CCN1C(=O)/C(=C\c2cc(Br)c(OCc3ccc(F)cc3)c(OC)c2)SC1=S`: the displacement came to 5.5%.

As for `N#Cc1ccccc1NC(=O)CC1Sc2ccc(C(F)(F)F)cc2NC1=O` (centres undefined), the displacement is -10.4%.

In the case of `Nc1nc(-c2ccc(-n3nncc3-c3ccccc3)cc2)cs1`, the displacement was -10.4%.

With `CN(C)CC(Oc1ccc(Cl)cc1)C(=O)O` (centres undefined), the displacement stood at 5.9%.

For the molecule `O=C1C(Cl)=C(N2CCN(c3ccccc3)CC2)C(=O)N1c1cccc(Cl)c1`, the displacement was -7.1%.

Take `CCNC(=S)Nc1cccc(Cl)c1`: the displacement was -5.9%.

As for `COC(=O)Cn1cc(/C=C2\C(=O)NC(=O)N(c3cc(C)cc(C)c3)C2=O)c2ccccc21`, the displacement was -4.6%.

For the molecule `Oc1ccccc1-c1cc(-c2ccccc2Cl)[nH]n1`, the displacement worked out at 0.5%.

`O=C(NCCN1CCOCC1)c1cc2nc(-c3ccc([N+](=O)[O-])cc3)cc(C(F)(F)F)n2n1`: the displacement was 5.7%.

As to `COc1ccccc1C1C(C(C)=O)=C(O)C(=O)N1CCN1CCNCC1` (centres undefined), the displacement was -10.3%.

In the case of `C/C(=N\NC(=O)c1ccc(N2CCCC2=O)cc1)c1ccccc1`, the displacement came out at 5.4%.

For the molecule `CCOc1ccccc1NC(=O)C(=O)NCC(C)C`, the displacement was -0.6%.

For `CC(=O)C12c3ccccc3C(c3ccccc31)C1C(=O)N(c3cc(C(F)(F)F)ccc3Cl)C(=O)C12` (centres undefined), the displacement is 12.6%.

Consider `CCc1cccc(C)c1NS(=O)(=O)c1ccc(F)cc1`, for which the displacement was 0%.

`O=C(Nc1cc(C(F)(F)F)cc(C(F)(F)F)c1)c1c(F)cccc1F`: the displacement was -16.7%.

In the case of `Cc1ccc(/C=C2\C=C(c3ccc(Cl)cc3)OC2=O)o1`, the displacement was 22.1%.

In the case of `Oc1ccc(Nc2nc(Nc3ccc(O)cc3)nc(N3CCOCC3)n2)cc1`, the displacement was -4.2%.

Regarding `CCOc1ccc(Nc2nc(-c3cccnc3)cs2)cc1`, the displacement worked out at 14.9%.

As to `O=C(/C=C/c1ccc(F)cc1)NC(=S)Nc1ccccc1Cl`, the displacement was -7.4%.

With `COc1ccc(C(=O)N2CCN(C(=O)c3ccc([N+](=O)[O-])cc3)CC2)cc1OC`, the displacement is -8.4%.

As for `CC(C)=CC/C=C1\CCC2C(=O)N(c3ccccc3)C(=O)C2C1` (centres undefined), the displacement was -1.6%.

As to `C=CCN=C(C)C1=C(O)c2ccccc2C1=O`, the displacement was -4%.

Turning to `COc1cc(/C=c2\sc3n(c2=O)C(c2c(OC)ccc4ccccc24)C(C(C)=O)=C(C)N=3)cc(OC)c1OC` (centres undefined), the displacement was 14.2%.

Regarding `COc1cc(-c2noc(-c3ccc([N+](=O)[O-])cc3)n2)cc(OC)c1OC`, the displacement worked out at 10.2%.

For `O=C1c2cccc3cccc(c23)C(=O)N1CC1CCN(S(=O)(=O)c2ccccc2)CC1`, the displacement was 5.8%.

For the molecule `O=C1C2C3C=CC(CC3)C2C(=O)N1c1ccc2c(c1)OCO2` (centres undefined), the displacement was 7.1%.

As to `COc1cccc(C2C(C(=O)Nc3ccccc3)=C(C)N=c3s/c(=C\c4sccc4C)c(=O)n32)c1` (centres undefined), the displacement came out at 46.7%.

Regarding `CC(C)N1CCC(=NNC(=O)c2ccc(C(C)(C)C)cc2)CC1`, the displacement was -11%.

With `CC(C)OC(=O)C1C(=O)CC(C)(O)C(C(=O)OC(C)C)C1c1ccc([N+](=O)[O-])cc1` (centres undefined), the displacement amounted to 3.3%.

For `COc1ccc(CCNS(=O)(=O)c2ccc(Cl)cc2)cc1OC`, the displacement was 0.8%.

With `COc1cc(C2Nc3ccc4ccccc4c3C3=C2C(=O)CC(C)(C)C3)cc(OC)c1O` (centres undefined), the displacement was 4.7%.

`Cc1ccc(OCC(=O)O/N=C(\N)c2cccc([N+](=O)[O-])c2)c(C)c1`: the displacement was -9.4%.

As to `CC(C)(C)C1CCc2c(sc(NC(=O)C3CC4CCC3C4)c2C(N)=O)C1` (centres undefined), the displacement is -14.2%.

For `COc1cc(/C=N/NC(=O)CN2CCOCC2)c([N+](=O)[O-])cc1OC`, the displacement is -14.3%.

`CC1(C)CC(N2CCC(=O)NC2=S)CC(C)(C)N1`: the displacement is -7.9%.

For `CCc1ccc(NC(=O)C(=O)NCCN2CCN(C(=O)c3ccccc3Br)CC2)cc1`, the displacement came out at 10.4%.

With `CCOc1cc(OCC)cc(C(=O)Nc2cc([N+](=O)[O-])ccc2Cl)c1`, the displacement was -4.7%.

Take `Cc1ccc(NCC(=O)N/N=C\C=C\c2ccco2)cc1`: the displacement is -0.4%.

Regarding `O=C(O)c1ccc(N2Cc3ccccc3C2)cc1`, the displacement came to 14%.

For `CCN1C(=O)/C(=C\c2ccc(OCc3ccccc3Cl)cc2)SC1=S`, the displacement came out at 15.9%.

As to `CCN(CC)CCN1C(=O)c2ccccc2NC1c1ccc2c(c1)OCO2` (centres undefined), the displacement was found to be 9.2%.

(Values after PubChem BioAssay AID1240 (Sanford-Burnham Center for Chemical Genomics, 2008).)
